Source: the DeepSol protein solubility set

Assay: soluble on expression in E. coli; label from the status in PepcDB or PDB records

Row | Substance | soluble on expression in E. coli
1 | AHHHHHHGSAIWQGRSLKKPSGGRIVLARKKRKRELGREPSNTRVAEQDKRKIIRTYGGNRKVRLTAAAYANVFDKSGKGRKVRIIRVIENPANRQFARRNIITKGAIIETEIGKAKVTSRPGQDGVVNAILLEE | not soluble
2 | APDFCLEPPYDGPCRALHLRYFYNAKAGLCQTFYYGGCLAKRNNFESAEDCMRTC | soluble
3 | GEDAIPGSWPWQVSLQDKTGFHFCGGSLISEDWVVTAAHCGVKTSDVVVAGEFDQGSDEENIQVLKIAQVFKNPKFNMFTVRNDITLLKLATPAQFSETVSAVCLPNVDDDFPPGTVCATTGWGKTKY | soluble
4 | MESMKPMYRSRSWRRKYVRTPGGRVVVHFERKKPKIAHCAICGRPLNGIPRGRPVEMRKLPKTKKRPERPMPYLCPRCMRRVMKEQIRSQIMKGLEHHHHHH | not soluble
5 | MGAYKYMQEIWRKKQSDALRYLLRIRTWHYRQLSAVHRVPRPTRPEKARRLGYRAKQGFVVYRVRVRRGNRKRPVCKGQTYGKPKTHGVNELKNAKSKQAVAEGRAGRRLGSLRVLNSYWVAEDSTYKFYEVVLIDPFHKAIRRNPDTQWITKPVHKHREQRGLTSAGRKSRGLGKGWRFSATRGGSQAKNWKRKNTKVFHRKR | not soluble
6 | MGSDKIHHHHHHMIKITKGLDLPIAGMPLQQISPAPAVKRVALLGEEYVGMRPAMAVKEGDRVKKGQILFEDKKIPGVCFTAPASGIVSAIHRGERRVLQSVVIDIEGNDAVAFTRYAADALAELPRDTVQQQLLASGQWTALRTRPFSKTPLPGSTPAAIFVNAMDTNPLAAEPQPIILAERAAFDAGLTVLTRLTDGKVHVCQPSGGKLGGHPLGQVCFNQFSGPHPAGLPGTHIHFLEPVSLNKQVWHLNYQDAIAIGKLFLDGELYCERIIALGGPQVTSPRLVKTTLGASLEDLLAGELQEGENRVISGSVLSGARAHGPHAFLGRFHLQVSVVKEGREKELFGWVMPGKEKFSITRTTLGHFFKRKRFHFSTDTNGGERAMVPIGNYERVMPLDILPTILLRDLLAGDTDSAQALGCLELDEEDLALCTYVCPGKYEYGPALRSVLTRIEQEG | not soluble
7 | MLALEAAQLDGPHFSCLYPDGVFYDLDSCKHSSYPDSEGAPDSLWDWTVAPPVPATPYEAFDPAAAAFSHPQAAQLCYEPPTYSPAGNLELAPSLEAPGPGLPAYPTENFASQTLVPPAYAPYPSPVLSEEEDLPLDSPALEVSDSESDEALVAGPEGKGSEAGTRKKLRLYQFLLGLLTRGDMRECVWWVEPGAGVFQFSSKHKELLARRWGQQKGNRKRMTYQKLARALRNYAKTGEIRKVKRKLTYQFDSALLPAVRRA | soluble
8 | MLTRWWRKRSSPLPNNENRIMTIKHTQDLAQIRAMVPEMRRVKAIHFIGIGGAGMSGIAEVLLNEGYQISGSDLAANAVTDRLADKGATIFIGHEAHNVAHASVVVVSTAINEQNPEIQAAREKRIPIVRRAEMLAELMRFRHGIAVAGTHGKTTTTALVTQIYSEAGLDPTFVNGGLVKSAGTNARLGSSRILIAEADESDASFLHLQPMVTIVTNIEADHMDTYGGDFENLKQTFIDFLHNLPFYGQAILCIDDPVIRELIPRVSRQVITYGFSEDADVRIENYRQNGQQGQFTVVRKGKANLDITLNIPGRHNALNAAAAIAVATEDDIRDEAILRAMANTQGTGRRFDHLGEFETGNGVAMLVDDYGHHPTEVDVTIKAARNGWAEKRLVMIFQPHRYTRTRDLYDDFANVLEQVDVLIMLDVYAAGEKPIAGADGRSLCRTIRSRGKIDPIFVPDSQTLPSVLANILQDGDLVLTQGAGDVGKVARHLAALELNIGRMQQI | soluble
9 | MMAAKKRVTAAKDKWKLKQWYIIYAPDFFGGVEVGLTPADDPEKVMNRVVEVTLKDITGDFTKGHVKLYFQVYDVKGQNAYTKFKGMKLARSYIRSLVRRRTTRIDGIFNITTKDGYRLRVMAMAIAMRRIQTSQERAIRKIMQEIIYKKAEELNFKDFVLEAVNGKIAAEIAKEGKKIYPLKKAEIRKIKVLGEPEAALEHHHHHH | soluble
10 | MPEGFIKAGQRPSLSGTPLVSANQGVTGMPVSAFTVILSKAYPAIGTPIPFDKILYNRQQHYDPRTGIFTCQIPGIYYFSYHVHVKGTHVWVGLYKNGTPVMYTYDEYTKGYLDQASGSAIIDLTENDQVWLQLPNAESNGLYSSEYVHSSFSGFLVAPM | soluble
11 | MSGPGIEGLAVGLNKGHAATQLPVKQRQNRHKGVASKKTKIVRELVREITGFAPYERRVLEMLRISKDKRALKFLKRRIGTHRRAKGKREELQNVIIAQRKAHK | not soluble
12 | MSLKITELHLYAHPLPVRDGPYRMASTEVWSLDTTLVKLVTDSGLIGWGETCPVGPVYQPQHAAGARAALAEMAPGLIGADPLQPLRLQRRMDGLLNGHRYAKAAIDIAAHDLMGKAWGVRVADLLGGAVTERVPSYYASGVGEPDEIARIAAERADEGYPRMQVKIGGRPVEIDIETIRKVWERVGTRMRLAVDGNRGLTTRDALRLSRECPEIPFILEQPCNSIEEIAAIRGQLHHAVYLDETAEDVATVLRAVGQGVCDGFGMKVTRIGGLRPMAVFRDICEVRSMPHTCDDAWGGDIIAAACTHIGATVQPRLMEGVWLAQPYIEGHFDPENGLRIEGGHIRLPEGPGLGIVPDESLFGAPVASFGEGHHHHHH | not soluble
13 | MYPRELKWGVAHIYSSFNNTHVHITDLTGAETVARVTGGMVVKADREKPSPYAAMIAASRAAQKAMERGIAAIHIKVRAPGGHGPKTPGPGAQAAIRALARAGFIIGRIEDVTPIPHDTTRRPGGRRGRRV | soluble
14 | RCSHHWGYGKHNGPEHWHKDFPIANGERQSPVDIDTKAVVQDPALKPLALVYGEATSRRMVNNGHSFNVEYDDSQDKAVLKDGPLTGTYRLVQFHFHWGSSDDQGSEHTVDRKKYAAELHLVHWNTKYGDFGTAAQQPDGLAVVGVFLKVGDANPALQKVLDALDSIKTKGKSTDFPNFDPGSLLPNVLDYWTYPGSLTTPPLLESVTWIVLKEPISVSSQQMLKFRTLNFNAEGEPELLMLANWRPAQPLKNRCVRGFPK | soluble
15 | VSCRRMSTATTVAPAGIPATPGPVNPPPPEVSNPSKPGRKTNQLQYMQNVVVKTLWKHQFAWPFYQPVDAIKLNLPDYHKIIKNPMDMGTIKKRLENNYYWSASECMQDFNTMFTNCYIYNKPTDDIVLMAQALEKIFLQKVAQMPQEEVELLPPAPKGKGRKPAAGAQSAGTQQVAAVSSVSPATPFQSVPPTVSQTPVIAATPVPTITANVTSVPVPPAAAPPPPATPIVPVVPPTPPVVKKKGVKRKADTTTPTTSAITASRSESPPPLSDPKQAKVVARRESGGRPIKPPKKDLEDGEVPQHAGKKGKLSEHLRYCDSILREMLSKKHAAYAWPFYKPVDAEALELHDYHDIIKHPMDLSTVKRKMDGREYPDAQGFAADVRLMFSNCYKYNPPDHEVVAMARKLQDVFEMRFAKMPDEPVEAPALPAPAAPMVSKGAESSRSSEESSSDSGSSDSEEERATRLAELQEQLKAVHEQLAALSQAPVNKPKKKKEKKEKEKKKKDKEKEKEKHKVKAEEEKKAKVAPPAKQAQQKKAPAKKANSTTTAGRQLKKG[gap - about 80 residues]QRKPFSASGKKQAAKSKEELAQEKKKELEKRLQDVSGQLSSSKKPARKEKPGSAPSGGPSRLSSSSSSESGSSSSSGSSSDSSDSE | soluble
